# Assay results taken from PMC7819943, “Rice protein-binding microarrays: a tool to detect cis-acting elements near promoter regions in rice”.
# The other results are listed elsewhere or left out.
# Biological target: T1, OsWOX13 (Oryza sativa, UniProt Q5QMM3 1-267)
# T1 sequence: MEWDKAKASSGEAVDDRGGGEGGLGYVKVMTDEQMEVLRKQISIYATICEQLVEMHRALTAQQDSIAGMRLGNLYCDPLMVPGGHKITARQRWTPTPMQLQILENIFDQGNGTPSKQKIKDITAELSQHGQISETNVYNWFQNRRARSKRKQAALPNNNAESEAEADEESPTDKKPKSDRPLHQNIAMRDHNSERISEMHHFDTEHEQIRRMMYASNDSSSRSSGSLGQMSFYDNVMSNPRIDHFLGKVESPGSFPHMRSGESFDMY
# Assay: protein-binding microarray (RPBM); PBS, 2% BSA, 51.3 ng/ul salmon testes DNA, 50 uM zinc acetate, 200 nM TF, 25 C, 1 h; high values mean tight binding
# Settings: protein: recombinant; tags: N-terminal polyhistidine and DsRed monomer fusion (pET32a); label: CyDye5-dUTP incorporated in the synthesized complementary strand; 3' TTTTT single-stranded linker to array surface; dsDNA, one strand shown
# How it was run: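 In PBS with 2% BSA, salmon testes DNA and 50 µM zinc acetate, 200 nM protein was incubated on a custom Agilent array at 25 °C for 1 h and then washed off. The array had been made double-stranded by primer extension with Cy5-dUTP and blocked with 2% BSA. The proteins were transcription factors fused N-terminally to polyhistidine and DsRed, expressed in E. coli BL21-CodonPlus and purified on Ni–NTA. The binding signal is per-feature fluorescence intensity (arbitrary units) from an Axon 4000B scanner.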
row,Sequence,binding signal
1,CAAATTTGTAAATTTCAGTCTCCACCTATGGTCTCTGGGCCGGAGTCACCTAGTGCAG,12000 fluorescence intensity (a.u.)
2,CCAATCACAGCAATACCGGTTACAGTACCTATCAGCCAAACGGAGTCACCTAGTGCAG,3160 fluorescence intensity (a.u.)
3,CTATAATGATTAATCAAGTCAGAACAAAATAAATGATAATCGGAGTCACCTAGTGCAG,11000 fluorescence intensity (a.u.)
4,TCAATAATTTACTATGGGTCCCGAGTATTAGCAACGAGACCGGAGTCACCTAGTGCAG,12000 fluorescence intensity (a.u.)
5,AACAAATTACTAGTTGCTATTTGAATCGATTCCCTTGCCTCGGAGTCACCTAGTGCAG,10100 fluorescence intensity (a.u.)
6,CACATTAATTAATCTCCCGCGAGGAAACATCTATCCCGGTCGGAGTCACCTAGTGCAG,31700 fluorescence intensity (a.u.)
7,GAAAACAAATTGGGATGTAGTAGTTCCGATTTCGATTAGACGGAGTCACCTAGTGCAG,6980 fluorescence intensity (a.u.)
8,TCGCTATAATTGACAGCGACCCTACCTTGGGCCACCGGACCGGAGTCACCTAGTGCAG,57100 fluorescence intensity (a.u.)
9,CAAAATAAACTAGTATTATATCAACAAGCATGCTTAAGTCCGGAGTCACCTAGTGCAG,3740 fluorescence intensity (a.u.)
10,ATATAGATAGACAGATCTCTATCAACTCTGAAACTAACCTCGGAGTCACCTAGTGCAG,19900 fluorescence intensity (a.u.)
11,TGTTCAATCTCGGTTAACTGGAACCAATTTATGAAAAGGTCGGAGTCACCTAGTGCAG,16300 fluorescence intensity (a.u.)
12,GAGATAGATAATAGGAGTATTGTTTATTTTATATGGGTAGCGGAGTCACCTAGTGCAG,4040 fluorescence intensity (a.u.)
13,ATGGTTTGACTTGGATAAACTGGATTCTTAACTCAAACCTCGGAGTCACCTAGTGCAG,3410 fluorescence intensity (a.u.)
14,CCAAACAGAAAATTGGATCGCCGTATCCAATAAAATATGGCGGAGTCACCTAGTGCAG,4990 fluorescence intensity (a.u.)
15,GAATATATATATTCAATTATTGATTTGATGAAACTAATTTCGGAGTCACCTAGTGCAG,10500 fluorescence intensity (a.u.)
16,ATCAAATTAGATACGTTTCACGTTTCAGTACTATGAATTTCGGAGTCACCTAGTGCAG,4210 fluorescence intensity (a.u.)
17,CGCCGTAACAATCAGAACCAATCATGCTCTATGTGTAGTTCGGAGTCACCTAGTGCAG,30300 fluorescence intensity (a.u.)
18,TAAAATTACCAAATATTGGTAAGCCTAATTTAGGCCTCAACGGAGTCACCTAGTGCAG,4120 fluorescence intensity (a.u.)
19,ATAATTAAACAATGATACTTGATTATACTCTTTGATATTACGGAGTCACCTAGTGCAG,16900 fluorescence intensity (a.u.)
20,AAAATTGTTGCGTGACTGAATGGAGATTTCAGATTTCTGCCGGAGTCACCTAGTGCAG,19000 fluorescence intensity (a.u.)
21,TAATATAGATTGATTTTGATGTAATTGTTTTCTGACTATACGGAGTCACCTAGTGCAG,20800 fluorescence intensity (a.u.)

row,Sequence,binding signal
1,ACAAACTAAATATGTCATTACCAACACAACCTTGCGAATTCGGAGTCACCTAGTGCAG,3240 fluorescence intensity (a.u.)
2,AATTAATCAGGATACAATTAATAATATACCAGTCACATTTCGGAGTCACCTAGTGCAG,10600 fluorescence intensity (a.u.)
3,AAGAATTAAACTGATGAAGTGTCCATGATAGCGGACGCACCGGAGTCACCTAGTGCAG,8740 fluorescence intensity (a.u.)
4,CAAACAAGAAAATAACTGTTAATTTATCTATGACTGTATGCGGAGTCACCTAGTGCAG,9180 fluorescence intensity (a.u.)
5,CATTTGCTAATGACGGATTAATTAGGGTTTATAAATTCGTCGGAGTCACCTAGTGCAG,24400 fluorescence intensity (a.u.)
6,AGTAATTGACTAAGATTGATAGGTTAATTCTTTACTACTTCGGAGTCACCTAGTGCAG,44400 fluorescence intensity (a.u.)
7,ACAAAATTTTCATCGTCATCCACGATCCAACCACCAGCTGCGGAGTCACCTAGTGCAG,3780 fluorescence intensity (a.u.)
8,ATAAAATTGGCTATATGCTGAAGTTGGATAGCTGATAGGCCGGAGTCACCTAGTGCAG,6240 fluorescence intensity (a.u.)
9,TGTAAATCCTAAAATTACATACTAATTACATATGTAAGTGCGGAGTCACCTAGTGCAG,14900 fluorescence intensity (a.u.)
10,CTCGTTGATTTCTCTTGCGCCAGATTAAGCGAACAATGCCCGGAGTCACCTAGTGCAG,13500 fluorescence intensity (a.u.)
11,TTTTAATTAGTAATGTGATATCAAACATATTGACACCGTTCGGAGTCACCTAGTGCAG,41900 fluorescence intensity (a.u.)
12,TGCAATCATGGACCAATATAGATAGATCGATGTGCATTGCCGGAGTCACCTAGTGCAG,3810 fluorescence intensity (a.u.)
13,CTTAATTTCAGCTTACTGATCAGTGATCACTGAGCTAGCTCGGAGTCACCTAGTGCAG,15500 fluorescence intensity (a.u.)
14,TTTTACAATCATGATGCTCACTCATGGTGCTAATGACTTGCGGAGTCACCTAGTGCAG,4140 fluorescence intensity (a.u.)
15,TTTGGCGCAACAGAAGCTGATTGGGGAGCTGGATACGGTTCGGAGTCACCTAGTGCAG,5500 fluorescence intensity (a.u.)
16,TAAAATTGGGCGTGAGATTTTCTGTGGCTAAGAGGAGTAGCGGAGTCACCTAGTGCAG,6280 fluorescence intensity (a.u.)
17,CTCGAGGTCAAATCTTGATTAATTATGCTAATTAACGCGACGGAGTCACCTAGTGCAG,16800 fluorescence intensity (a.u.)
18,CATGATTAAGAGATCAAGACAAGTACATTTGGGCCCTATCCGGAGTCACCTAGTGCAG,16500 fluorescence intensity (a.u.)
19,CAACCAATCAATCACATACGTGGACAACTGCAGAAAATGCCGGAGTCACCTAGTGCAG,39800 fluorescence intensity (a.u.)
20,CTTTTAATTTGTCTTCAGAGAATCGAAGATATCAAATGGACGGAGTCACCTAGTGCAG,5350 fluorescence intensity (a.u.)
21,TTTAATTTTATTAAATTCTCCATGGTTAATTCTGCTCTTTCGGAGTCACCTAGTGCAG,17400 fluorescence intensity (a.u.)
